Inconclusive results, whose numbers are uncertain, are shown with a selection of clear calls. For part of these data: Where the call is inconclusive, the potency comes from a doubtful curve fit. The source made the active and inactive calls. Unless noted, calls come from the whole dose curve; as a rule, active = well fitted curve in the direction sought with a large enough effect in the repeat runs; inconclusive = weak or mixed curves; inactive = no such curve, though single readings can be large; an effect the other way counts as inactive or inconclusive.
Legend:
[1] = qHTS assay to identify small molecule antagonists of the androgen receptor (AR) signaling pathway - cell viability counter screen (AID 743033; note: % is set by controls: 0 for no effect and ±100 for the full control effect; nearly all actives have a fitted effect of over 45% in size); conditions: AR-bla HEK293 viability, CellTiter-Glo luminescence, 16 h; activity change, negative = cytotoxicity: at 58.5 µM (top of the series) unless noted
[2] = qHTS assay to identify small molecule antagonists of the thyroid receptor (TR) signaling pathway (AID 743065); note: % is set by controls: 0 for no effect and ±100 for the full control effect; nearly all actives have a fitted effect of over 55% in size
In short: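 Antagonism measured as loss of luciferase signal in GH3 cells stably carrying a TRE-luciferase reporter, co-treated with compound and T3 (1 nM final) for 23.5 h at 37 C. Viability was read in the same well by CellTiter-Fluor.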

[3] = target: Peroxisome proliferator-activated receptor gamma (Homo sapiens) (UniProt P37231); assay: qHTS assay to identify small molecule agonists of the peroxisome proliferator-activated receptor gamma (PPARg) signaling pathway (AID 743094; active = well fitted activation curve with a large enough effect in the signal ratio in the repeat runs, not every such curve was filed as active; inconclusive = weak or mixed curves, or effect the other way; inactive = no such curve, though single readings can be large or run the other way; the % refers to the signal ratio; note: potency is the fitted concentration of half-maximal effect; for activation: % is set by controls: 0 for no effect and ±100 for the full control effect); conditions: HEK293H PPARg-UAS-bla, beta-lactamase FRET ratio, 17 h; activation: at 57 µM (top of the series) unless noted
In short: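 GeneBLAzer PPARg UAS-bla HEK293H cells were plated, rested 5 h, then exposed to compounds for 17 h at 37C. Beta-lactamase activity was read by LiveBLAzer B/G FRET substrate fluorescence after 1 h at room temperature.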

[4] = target: Nuclear receptor subfamily 1 group I member 2 (Rattus norvegicus) (UniProt Q9R1A7); assay: Rat pregnane X receptor (rPXR) activation by small molecules, qHTS assay (AID 1346983); conditions: rPXR luciferase reporter cells, One-Glo luminescence, 24 h; max activation: active compounds read high; note: potency is the fitted concentration of half-maximal effect; nearly all actives have a fitted effect of over 20% in size
In short: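 Luminescent readout (One-Glo luciferase, 30 min room temperature) followed 24 hr compound treatment at 37 C of rPXR cells plated 2,000 per well and preincubated 5hr; qHTS format with compounds delivered in DMSO.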

[5] = qHTS assay for small molecule agonists of the p53 signaling pathway (AID 651631; calls by dose curve; note: % is set by controls: 0 for no effect and ±100 for the full control effect; nearly all actives have a fitted effect of over 15% in size); conditions: HCT-116 p53RE-bla reporter, beta-lactamase FRET ratio, 16 h; activation: at 73.3 µM (top of the series) unless noted
In short: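 Quantitative high-throughput format: 4,000 p53RE-bla HCT-116 cells/well, 5 h pre-incubation, 16 h compound exposure at 37 °C, 2 h room-temperature substrate step, fluorescence intensity measured.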

[6] = qHTS assay for small molecule disruptors of the mitochondrial membrane potential (AID 720635); conditions: HepG2 mitochondrial membrane potential, Mito-MPS dye ratio; ratio activity, negative = MMP loss: at 83.2 µM (top of the series) unless noted; note: potency is the fitted concentration of half-maximal effect
In short: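 Mitochondrial membrane potential tracked with Mito-MPS dye, red aggregates (ex 540/em 590 nm) against green monomers (ex 490/em 535 nm). Compound treatment 1 hr at 37C, dye 30 min in HepG2.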

[7] = target: Estrogen receptor (Homo sapiens) (UniProt P03372); assay: qHTS assay to identify small molecule antagonists of the estrogen receptor alpha (ER-alpha) signaling pathway (AID 743069; active = well fitted curve in the direction sought with a large enough effect in the signal ratio in the repeat runs, not every such curve was filed as active; inconclusive = weak or mixed curves, or effect the other way; inactive = no such curve, though single readings can be large or run the other way; the % refers to the signal ratio; note: potency is the fitted concentration of half-maximal effect); conditions: HEK293 ER-alpha-UAS-bla, beta-lactamase ratio, antagonist mode; activity, negative = inhibition: at 69.4 µM (top of the series) unless noted
In short: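 Compound effects are measured against 17beta-estradiol stimulation in HEK293 cells with a UAS-controlled beta-lactamase reporter for ER-alpha. Exposure lasts 18 hr at 37C; LiveBLAzer B/G FRET substrate follows for 2 hr at room temperature.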

[8] = qHTS assay for identifying genotoxic compounds that show differential cytotoxicity against isogenic chicken DT40 cell lines with known DNA damage response pathways - wild type cell line (AID 743012); conditions: DT40 wild type chicken cells viability, CellTiter-Glo, 40 h; activity change, negative = cytotoxicity: at 68.4 µM (top of the series) unless noted; note: nearly all actives have a fitted effect of over 60% in size; note: potency is the fitted concentration of half-maximal effect
In short: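 Wild-type DT40 cells (300/well) exposed to compounds for 40 hours at 37 C/5% CO2. Viability read by CellTiter-Glo luminescence after 30 min at room temperature.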

[9] = qHTS assay to identify small molecule antagonists of the thyroid receptor (TR) signaling pathway - cell viability counter screen (AID 743064); conditions: GH3.TRE-Luc viability, CellTiter-Fluor, 24 h; activity change, negative = cytotoxic: at 70.3 µM (top of the series) unless noted; note: nearly all actives have a fitted effect of over 50% in size; note: potency is the fitted concentration of half-maximal effect
In short: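 Compounds were tested on GH3.TRE-Luc cells in the presence of T3 at 1 nM final. Following 23.5 h at 37 °C, cell viability was quantified by CellTiter-Fluor.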

[10] = target: Glucocorticoid receptor (Homo sapiens) (UniProt P04150); assay: qHTS assay to identify small molecule antagonists of the glucocorticoid receptor (GR) signaling pathway (AID 720692; active = well fitted inhibition curve with a large enough effect in the signal ratio in the repeat runs, not every such curve was filed as active; inconclusive = weak or mixed curves, or effect the other way; inactive = no such curve, though single readings can be large or run the other way; the % refers to the signal ratio; note: % is set by controls: 0 for no effect and ±100 for the full control effect); conditions: GR-bla HeLa, beta-lactamase FRET ratio, dexamethasone-stimulated, 18 h; activity change, negative = inhibition: at 58.5 µM (top of the series) unless noted
In short: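 GR-bla HeLa cells carrying a GRE-driven beta-lactamase reporter received compound after 4 h plating, then dexamethasone (5 nM final). After 18 h at 37C, the FRET substrate was loaded for 2 h at room temperature and fluorescence read.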

[11] = qHTS assay to identify small molecule antagonists of the estrogen receptor alpha (ER-alpha) signaling pathway using the BG1 cell line (AID 743080; calls by dose curve;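 note: BG1 cells stimulated with 17beta-estradiol alongside compound; potency is the fitted concentration of half-maximal effect; nearly all actives have a fitted effect of over 25% in size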); conditions: BG1Luc4E2 ERE-luciferase antagonist mode, luminescence; activity change, negative = inhibition: at 70.3 µM (top of the series) unless noted
In short: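 Readout is ONE-Glo luminescence, taken 30 min at room temperature after reagent addition, preceded by a CellTiter-Fluor viability read; BG1-Luc-4E2 cells had received compound and 17beta-estradiol for 21.5 h at 37 C.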

[12] = target: Aryl hydrocarbon receptor (Homo sapiens) (UniProt P35869); assay: qHTS assay to identify small molecule that activate the aryl hydrocarbon receptor (AhR) signaling pathway (AID 743085); note: potency is the fitted concentration of half-maximal effect; nearly all actives have a fitted effect of over 15% in size
In short: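 24 h compound exposure, 37C, HepG2-derived HG2L7.5c1 cells with DRE-responsive luciferase. Readouts: fluorescence viability, then luminescence at room temperature after 30 min.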

[13] = target: Glucocorticoid receptor (Homo sapiens) (UniProt P04150); assay: qHTS assay to identify small molecule agonists of the glucocorticoid receptor (GR) signaling pathway (AID 720691; active = well fitted activation curve with a large enough effect in the signal ratio in the repeat runs, not every such curve was filed as active; inconclusive = weak or mixed curves, or effect the other way; inactive = no such curve, though single readings can be large or run the other way; the % refers to the signal ratio; note: % is set by controls: 0 for no effect and ±100 for the full control effect); conditions: GR-bla HeLa, beta-lactamase reporter ratio, 18 h; activation: at 62.4 µM (top of the series) unless noted
In short: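 GR-bla HeLa cells carrying a GRE-driven beta-lactamase reporter, exposed to compounds for 18 h at 37 C. Reporter activation read as fluorescence after 2 h with LiveBLAzer B/G FRET substrate at room temperature.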

[14] = target: Androgen receptor (Homo sapiens) (UniProt P10275); assay: qHTS assay to identify small molecule antagonists of the androgen receptor (AR) signaling pathway (AID 743035; active = well fitted inhibition curve with a large enough effect in the signal ratio in the repeat runs, not every such curve was filed as active; inconclusive = weak or mixed curves, or effect the other way; inactive = no such curve, though single readings can be large or run the other way; the % refers to the signal ratio; note: % is set by controls: 0 for no effect and ±100 for the full control effect); conditions: HEK293 AR-UAS-bla, R1881-stimulated, beta-lactamase FRET, 16 h; activity change, negative = inhibition: at 58.5 µM (top of the series) unless noted
In short: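 HEK293 cells stably carrying UAS-beta-lactamase reporter, 2,000/well, given compounds plus R1881 agonist and incubated 16 h at 37C. LiveBLAzer B/G FRET substrate then added for 2 h at room temperature before fluorescence reading.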

[15] = qHTS assay to identify small molecule antagonists of the androgen receptor (AR) signaling pathway using the MDA cell line - cell viability counter screen (AID 743041; note: potency is the fitted concentration of half-maximal effect; nearly all actives have a fitted effect of over 45% in size); conditions: MDA-kb2 viability, CellTiter-Fluor, 16 h, cells co-treated with R1881 androgen agonist; viability change, negative = cytotoxic: at 70.3 µM (top of the series)
In short: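 R1881-driven MDA-kb2 AR-luc cells, 3,000/well, were dosed with library compounds for 16 h; cell health came from CellTiter-Fluor fluorescence in the reporter wells.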

[16] = target: Androgen receptor (Homo sapiens) (UniProt P10275); assay: qHTS assay to identify small molecule antagonists of the androgen receptor (AR) signaling pathway using the MDA cell line (AID 743042; note: % is set by controls: 0 for no effect and ±100 for the full control effect; nearly all actives have a fitted effect of over 55% in size)
In short: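 Antagonist mode: compounds plus R1881 agonist added to MDA-kb2 AR-luc cells, incubated 16 h at 37C. Luciferase reporter luminescence quantified, with multiplexed CellTiter-Fluor readout for cell viability.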

Aromatase (Homo sapiens) = Aromatase (Homo sapiens) (UniProt P11511); assay: qHTS assay to identify aromatase inhibitors (AID 743083); note: potency is the fitted concentration of half-maximal effect; nearly all actives have a fitted effect of over 55% in size
[17] = target: Nuclear receptor subfamily 1 group I member 2 (Homo sapiens) (UniProt O75469); assay: CYP3A4 induction through human pregnane X receptor (PXR) by small molecules, qHTS assay (AID 1346984); conditions: DPX-2 HepG2 PXR, CYP3A4-luciferin luminescence, 24 h; activation: at 46.1 µM (top of the series) unless noted; note: potency is the fitted concentration of half-maximal effect; nearly all actives have a fitted effect of over 40% in size
In short: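 DPX-2 HepG2 cells carrying a PXR response element and CYP3A4-promoter luciferase construct, treated with compounds 24 hr at 37C. Then P450-Glo CYP3A4 Luciferin-IPA substrate (3uM final) for 3 hr at 37C, One-Glo added, luminescence read.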

[18] = target: Nuclear receptor subfamily 1 group I member 2 (Homo sapiens) (UniProt O75469); assay: Human pregnane X receptor (PXR) activation by small molecules, qHTS assay (AID 1346985); note: potency is the fitted concentration of half-maximal effect; nearly all actives have a fitted effect of over 40% in size
In short: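 DPX-2 cells (HepG2 co-transfected with a PXR response element and a CYP3A4-promoter luciferase construct) were seeded at 2,000 per well, rested 5 hr at 37C, then exposed to DMSO-dissolved compounds for 24 hr. Activation was read as luciferase luminescence.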
Tags give direction and shape of the fitted curve or compound fluorescence and quenching.

UniProt Q9R1A7, sequence (Q9R1A7 whole entry, looked up): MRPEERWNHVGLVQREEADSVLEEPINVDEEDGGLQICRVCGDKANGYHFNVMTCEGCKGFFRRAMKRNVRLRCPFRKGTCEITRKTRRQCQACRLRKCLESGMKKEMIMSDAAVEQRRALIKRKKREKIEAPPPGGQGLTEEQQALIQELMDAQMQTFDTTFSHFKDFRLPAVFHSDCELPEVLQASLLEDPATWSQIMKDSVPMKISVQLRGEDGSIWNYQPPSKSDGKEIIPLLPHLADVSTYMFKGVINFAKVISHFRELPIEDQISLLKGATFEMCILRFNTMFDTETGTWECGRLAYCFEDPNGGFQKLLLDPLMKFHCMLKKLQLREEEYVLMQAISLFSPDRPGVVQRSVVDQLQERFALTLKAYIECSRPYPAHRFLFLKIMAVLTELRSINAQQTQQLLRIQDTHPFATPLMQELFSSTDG
UniProt P04150, sequence (P04150 whole entry, looked up): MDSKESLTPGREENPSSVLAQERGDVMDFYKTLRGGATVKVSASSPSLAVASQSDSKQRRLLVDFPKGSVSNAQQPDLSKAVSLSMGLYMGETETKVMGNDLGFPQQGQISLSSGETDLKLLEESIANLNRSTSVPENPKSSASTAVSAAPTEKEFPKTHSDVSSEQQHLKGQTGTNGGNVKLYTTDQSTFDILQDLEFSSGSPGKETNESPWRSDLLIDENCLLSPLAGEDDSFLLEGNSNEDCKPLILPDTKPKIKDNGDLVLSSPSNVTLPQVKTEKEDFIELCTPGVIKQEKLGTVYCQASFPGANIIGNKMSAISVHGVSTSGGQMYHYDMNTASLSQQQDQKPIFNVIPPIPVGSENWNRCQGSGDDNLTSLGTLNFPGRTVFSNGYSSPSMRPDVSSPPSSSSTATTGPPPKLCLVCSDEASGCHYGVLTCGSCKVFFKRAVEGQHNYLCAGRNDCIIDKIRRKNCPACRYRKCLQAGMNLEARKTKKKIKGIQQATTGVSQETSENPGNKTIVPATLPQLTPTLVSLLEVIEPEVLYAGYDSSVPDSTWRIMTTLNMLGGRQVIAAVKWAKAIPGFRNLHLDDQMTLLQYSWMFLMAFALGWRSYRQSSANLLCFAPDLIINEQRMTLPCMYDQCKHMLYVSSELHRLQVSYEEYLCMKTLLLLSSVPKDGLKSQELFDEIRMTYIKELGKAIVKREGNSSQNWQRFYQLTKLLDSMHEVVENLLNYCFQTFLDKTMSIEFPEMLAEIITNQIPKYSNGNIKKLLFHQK
UniProt P37231, sequence (P37231 whole entry, looked up): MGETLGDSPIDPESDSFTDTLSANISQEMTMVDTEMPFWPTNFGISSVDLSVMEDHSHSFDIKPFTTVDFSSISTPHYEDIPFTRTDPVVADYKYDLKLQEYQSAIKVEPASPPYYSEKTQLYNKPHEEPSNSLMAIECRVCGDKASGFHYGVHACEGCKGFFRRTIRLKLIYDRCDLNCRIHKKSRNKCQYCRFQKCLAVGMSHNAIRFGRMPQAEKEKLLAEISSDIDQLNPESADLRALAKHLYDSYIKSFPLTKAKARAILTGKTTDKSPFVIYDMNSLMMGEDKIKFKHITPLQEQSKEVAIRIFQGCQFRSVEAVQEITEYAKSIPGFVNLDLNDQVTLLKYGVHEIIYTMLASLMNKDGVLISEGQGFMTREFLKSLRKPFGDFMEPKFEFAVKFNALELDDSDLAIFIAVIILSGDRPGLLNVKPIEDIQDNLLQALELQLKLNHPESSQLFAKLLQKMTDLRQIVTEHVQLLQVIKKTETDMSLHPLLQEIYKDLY
UniProt P03372, sequence (P03372 whole entry, looked up): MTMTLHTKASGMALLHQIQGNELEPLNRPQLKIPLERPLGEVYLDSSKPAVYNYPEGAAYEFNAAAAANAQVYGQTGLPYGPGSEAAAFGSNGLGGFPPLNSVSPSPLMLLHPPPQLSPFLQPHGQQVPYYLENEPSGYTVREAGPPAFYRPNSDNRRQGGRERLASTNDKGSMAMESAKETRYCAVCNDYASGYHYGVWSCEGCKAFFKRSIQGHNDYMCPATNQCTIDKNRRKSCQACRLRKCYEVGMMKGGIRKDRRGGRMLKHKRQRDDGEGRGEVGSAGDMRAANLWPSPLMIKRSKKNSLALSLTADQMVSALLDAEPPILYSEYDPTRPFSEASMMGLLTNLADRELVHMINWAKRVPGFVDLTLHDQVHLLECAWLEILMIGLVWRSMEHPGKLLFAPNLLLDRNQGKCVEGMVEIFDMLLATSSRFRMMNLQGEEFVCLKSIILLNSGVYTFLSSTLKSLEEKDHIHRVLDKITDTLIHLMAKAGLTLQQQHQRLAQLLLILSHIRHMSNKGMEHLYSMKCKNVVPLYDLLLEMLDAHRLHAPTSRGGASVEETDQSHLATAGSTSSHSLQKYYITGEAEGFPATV
UniProt P10275, sequence (P10275 whole entry, looked up): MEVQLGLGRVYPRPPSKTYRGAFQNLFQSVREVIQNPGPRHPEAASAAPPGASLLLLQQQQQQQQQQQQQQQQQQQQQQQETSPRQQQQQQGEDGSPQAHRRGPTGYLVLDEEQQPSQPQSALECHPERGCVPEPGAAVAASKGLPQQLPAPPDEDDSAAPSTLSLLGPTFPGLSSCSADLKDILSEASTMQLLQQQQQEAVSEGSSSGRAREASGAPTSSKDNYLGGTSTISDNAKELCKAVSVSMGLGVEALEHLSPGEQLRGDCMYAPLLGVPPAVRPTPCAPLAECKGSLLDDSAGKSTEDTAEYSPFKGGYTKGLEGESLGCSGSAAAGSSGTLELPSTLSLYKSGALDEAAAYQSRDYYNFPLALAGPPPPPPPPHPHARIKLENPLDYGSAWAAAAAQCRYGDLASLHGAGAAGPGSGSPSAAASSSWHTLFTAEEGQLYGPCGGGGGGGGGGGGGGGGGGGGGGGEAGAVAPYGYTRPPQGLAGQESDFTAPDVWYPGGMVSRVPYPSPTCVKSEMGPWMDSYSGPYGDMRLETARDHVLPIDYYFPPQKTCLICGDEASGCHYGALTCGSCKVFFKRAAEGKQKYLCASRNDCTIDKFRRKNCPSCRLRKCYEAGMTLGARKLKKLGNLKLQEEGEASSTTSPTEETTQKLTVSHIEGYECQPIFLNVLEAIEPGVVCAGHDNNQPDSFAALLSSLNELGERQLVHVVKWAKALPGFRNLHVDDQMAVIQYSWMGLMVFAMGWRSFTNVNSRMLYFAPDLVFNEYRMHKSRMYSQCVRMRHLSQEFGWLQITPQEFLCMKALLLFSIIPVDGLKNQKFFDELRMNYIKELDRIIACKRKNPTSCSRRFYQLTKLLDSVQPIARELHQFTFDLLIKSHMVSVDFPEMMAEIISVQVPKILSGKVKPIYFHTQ
UniProt P35869, sequence (P35869 whole entry, looked up): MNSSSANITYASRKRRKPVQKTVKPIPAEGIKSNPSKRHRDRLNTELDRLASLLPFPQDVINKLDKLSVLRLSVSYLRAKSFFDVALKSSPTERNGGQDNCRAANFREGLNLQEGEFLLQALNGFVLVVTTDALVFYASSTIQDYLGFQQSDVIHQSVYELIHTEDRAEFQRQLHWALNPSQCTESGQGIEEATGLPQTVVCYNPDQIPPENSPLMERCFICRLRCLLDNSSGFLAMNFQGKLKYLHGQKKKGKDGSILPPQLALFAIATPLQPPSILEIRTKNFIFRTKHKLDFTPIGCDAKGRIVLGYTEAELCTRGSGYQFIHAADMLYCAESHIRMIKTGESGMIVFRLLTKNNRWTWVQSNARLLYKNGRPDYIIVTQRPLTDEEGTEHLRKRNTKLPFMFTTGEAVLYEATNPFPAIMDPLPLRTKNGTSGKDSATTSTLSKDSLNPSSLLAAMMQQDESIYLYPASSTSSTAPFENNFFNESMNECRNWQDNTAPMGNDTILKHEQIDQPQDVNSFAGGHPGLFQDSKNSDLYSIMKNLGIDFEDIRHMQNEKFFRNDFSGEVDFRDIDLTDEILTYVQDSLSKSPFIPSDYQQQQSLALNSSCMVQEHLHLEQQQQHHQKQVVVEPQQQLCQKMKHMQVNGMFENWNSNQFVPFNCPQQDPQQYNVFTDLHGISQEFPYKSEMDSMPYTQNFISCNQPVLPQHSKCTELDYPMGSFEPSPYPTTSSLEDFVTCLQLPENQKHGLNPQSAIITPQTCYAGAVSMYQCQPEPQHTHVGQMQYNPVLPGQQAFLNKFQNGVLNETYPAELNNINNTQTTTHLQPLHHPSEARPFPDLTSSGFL
UniProt P11511, sequence (P11511 whole entry, looked up): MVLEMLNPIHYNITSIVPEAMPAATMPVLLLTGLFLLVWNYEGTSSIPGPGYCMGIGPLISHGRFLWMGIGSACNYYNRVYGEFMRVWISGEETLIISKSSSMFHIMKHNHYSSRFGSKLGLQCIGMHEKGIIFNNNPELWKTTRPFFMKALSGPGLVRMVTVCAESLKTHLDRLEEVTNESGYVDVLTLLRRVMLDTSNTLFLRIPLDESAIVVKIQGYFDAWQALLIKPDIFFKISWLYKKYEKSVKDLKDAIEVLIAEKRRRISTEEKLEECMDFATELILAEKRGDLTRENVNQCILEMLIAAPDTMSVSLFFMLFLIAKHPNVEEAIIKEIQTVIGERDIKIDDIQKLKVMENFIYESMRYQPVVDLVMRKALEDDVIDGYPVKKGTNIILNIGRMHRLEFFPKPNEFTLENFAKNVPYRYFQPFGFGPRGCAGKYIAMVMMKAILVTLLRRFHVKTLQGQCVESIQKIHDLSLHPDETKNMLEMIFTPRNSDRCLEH

O=C(O)COc1ccc(CCNS(=O)(=O)c2ccccc2)s1
inconclusive: Potency [4] 11.2 µM [activator, single point]
inactive: Potency [1] | Potency [2] | Potency [3]

CC(=O)[C@@]1(O)CC[C@H]2[C@@H]3C=C(Cl)C4=CC(=O)[C@@H]5C[C@@H]5[C@]4(C)[C@H]3CC[C@@]21C
inconclusive: Potency [6] 11.9 µM [activator, partial curve] | Potency [7] 7.56 µM [activator, partial curve, poor fit] | Potency [4] 15.8 µM [activator, partial curve]
inactive: Potency [5]

CC(C)CN(C[C@@H](OP(=O)(O)O)[C@H](Cc1ccccc1)NC(=O)O[C@H]1CCOC1)S(=O)(=O)c1ccc(N)cc1
inconclusive: Potency [3] 26.8 µM [activator, single point] | Potency [4] 22.4 µM [activator, partial curve]
inactive: Potency [5] | Potency [8] | Potency [9] | Potency [7]

O=C(c1cc2ccccc2o1)N1CCN(Cc2ccccc2)CC1
inconclusive: activity change, negative = inhibition [10] 3.18% | Potency [11] 13.3 µM [rising, full curve, poor fit] | Potency [12] 23.7 µM [activator, partial curve, poor fit] | Potency [4] 22.4 µM [activator, partial curve]
inactive: Potency [6]

COc1ccc2c(=O)c(C)c(-c3ccccc3)oc2c1CN(C)C
inactive: Potency [5] | Potency [13] | Potency [14] | Potency [16]
inconclusive: activity change, negative = inhibition [10] 3.14% | Potency [8] 18.8 µM [cytotoxic, partial curve] | Potency [15] 29.8 µM [rising, single point] | Potency [9] 33.5 µM [cytotoxic, single point] | Potency (Aromatase (Homo sapiens)) 33.5 µM [inhibitor, single point] | Potency [17] 31.6 µM [activator, single point] | Potency [18] 17.8 µM [activator, partial curve, poor fit]

From PubChem BioAssay (Tox21)
